Test results taken from patent US8741944B2, “Anti-infective agents against intracellular pathogens” (priority 2007, dated 2014).

Tested on: NCI-H322M (Non-Small Cell Lung Cancer)

Compound | GI50 [nM] | TGI | Percent Growth (Log10 Concentration −4.0) [%] | Percent Growth (Log10 Concentration −5.0) [%] | Percent Growth (Log10 Concentration −6.0) [%] | Percent Growth (Log10 Concentration −7.0) [%] | Percent Growth (Log10 Concentration −8.0) [%] | Mean Optical Densities (Log10 Concentration −4.0) | Percent Growth (Log10 Concentration −4.0 (head prints −6.0)) [%] | Mean Optical Densities (Log10 Concentration −5.0) | Mean Optical Densities (Log10 Concentration −6.0) | Mean Optical Densities (Log10 Concentration −7.0) | Mean Optical Densities (Log10 Concentration −8.0)
4-[5-(2-Phenanthrenyl)-3-(trifluoromethyl)-1H-pyrazol-1-yl]-phenyl -guanidine [Compound 71] | 1360 | 2.64E−06 | −59 | −100 | 73 | 76 | 65 | – | – | – | – | – | –
NCC(=O)Nc1ccc(-n2nc(C(F)(F)F)cc2-c2ccc3c(ccc4ccccc43)c2)cc1 [Compound 70, 2-Amino-N-{4-[5-(2-phenanthrenyl)-3-(trifluoromethyl)-1H-pyrazol-1-yl]-phenyl}-acetamide] | – | 2.18E−06 | – | −84 | 43 | 51 | – | 0.269 | −57 | 0.100 | 1.420 | 1.562 | 1.363

Like-named read-outs stand apart in the source and are kept apart here.
